A lower IC50 marks a more sensitive line; a limit (>, <) means that the fit lies beyond the doses tested. AUC is the area under the same curve over the 256-fold range up to the top dose, as a fraction: 1 means no effect, lower means more sensitive. For part of these data: The top dose, if marked as inferred, comes from the curve model; the source does not state it. For part of these data: Where an entry number is given, a second screen of the drug exists; the two often differ.
How the values were obtained:
Assay in all cases: Viability of human cancer cell lines after 72 h of drug (GDSC screen)
LFM-A13 = compound: C/C(O)=C(\C#N)C(=O)Nc1cc(Br)ccc1Br [LFM-A13]; details: top dose 16 µM; top dose inferred
Protocol: (§1)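 Human cancer cell lines in 384-well plates, medium with 10% serum, drug for 72 h over a 256-fold dose range (nine 2-fold or five 4-fold steps up to the top dose). Adherent lines were fixed and stained with the nucleic acid dye Syto60, suspension lines read with resazurin; signal relative to control wells, capped at 0 and 100%. One two-parameter sigmoid per drug and line, fitted in a mixed model over all curves with the slope shared within a line.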

TW-37 = compound: CC(C)c1ccccc1Cc1cc(C(=O)Nc2ccc(S(=O)(=O)c3ccccc3C(C)(C)C)cc2)c(O)c(O)c1O [TW-37]; details: top dose 5 µM
Protocol: as §1

Bicalutamide = compound: CC(O)(CS(=O)(=O)c1ccc(F)cc1)C(=O)Nc1ccc(C#N)c(C(F)(F)F)c1 [Bicalutamide]; details: top dose inferred
Protocol: as §1

AUY922 = compound: CCNC(=O)c1noc(-c2cc(C(C)C)c(O)cc2O)c1-c1ccc(CN2CCOCC2)cc1 [AUY922]; details: top dose 0.256 µM; top dose inferred
Protocol: as §1

KIN001-270 = compound: Cc1ccc(Nc2cc(-c3cccc(N4C(=O)c5ccccc5C4=O)c3)ncn2)cc1NS(C)(=O)=O [KIN001-270]; details: top dose 20 µM; top dose inferred
Protocol: as §1

Nilotinib = compound: Cc1cn(-c2cc(NC(=O)c3ccc(C)c(Nc4nccc(-c5cccnc5)n4)c3)cc(C(F)(F)F)c2)cn1 [Nilotinib]; details: top dose 2 µM
Protocol: as §1

Gemcitabine = compound: Nc1ccn([C@@H]2O[C@H](CO)[C@@H](O)C2(F)F)c(=O)n1 [Gemcitabine]; details: top dose 1.024 µM
Protocol: as §1

T0901317 = compound: O=S(=O)(c1ccccc1)N(CC(F)(F)F)c1ccc(C(O)(C(F)(F)F)C(F)(F)F)cc1 [T0901317]; details: top dose 10.24 µM; top dose inferred
Protocol: as §1

MP470 = compound: S=C(NCc1ccc2c(c1)OCO2)N1CCN(c2ncnc3c2oc2ccccc23)CC1 [MP470]; details: top dose 20 µM; top dose inferred
Protocol: as §1

[1] = top dose 1.024 µM, screen: GDSC drug entry 150
[2] = top dose 10 µM, screen: GDSC drug entry 1502

Cell Line | AUC (LFM-A13) | IC50 (LFM-A13) [nM] | AUC (TW-37) | IC50 (TW-37) [nM] | AUC (Bicalutamide; [1]) | IC50 (Bicalutamide; [1]) [nM] | AUC (Bicalutamide; [2]) | IC50 (Bicalutamide; [2]) [nM] | AUC (AUY922) | IC50 (AUY922) [nM] | AUC (KIN001-270) | IC50 (KIN001-270) [nM] | AUC (Nilotinib) | IC50 (Nilotinib) [nM] | AUC (Gemcitabine) | IC50 (Gemcitabine) [nM] | AUC (T0901317) | IC50 (T0901317) [nM] | AUC (MP470) | IC50 (MP470) [nM]
OE19 (oesophagus, adherent) | 0.966 | > 16000 | 0.867 | > 5000 | 0.986 | > 1020 | 0.983 | > 10000 | 0.561 | 24 | 0.986 | > 20000 | 0.985 | > 2000 | 0.678 | 216 | 0.981 | > 10200 | 0.782 | 9580
OE33 (oesophagus, adherent) | 0.981 | > 16000 | 0.638 | 812 | 0.978 | > 1020 | 0.978 | > 10000 | 0.627 | 38.5 | 0.956 | > 20000 | 0.982 | > 2000 | 0.459 | 48.3 | 0.98 | > 10200 | 0.984 | > 20000
OSC-20 (head and neck, adherent) | 0.971 | > 16000 | 0.673 | 1050 | 0.977 | > 1020 | 0.927 | > 10000 | 0.488 | 14.8 | 0.975 | > 20000 | 0.969 | > 2000 | 0.234 | 9.13 | 0.975 | > 10200 | 0.948 | > 20000
OV-90 (ovary, adherent) | 0.963 | > 16000 | 0.478 | 268 | 0.982 | > 1020 | 0.956 | > 10000 | 0.879 | > 256 | 0.963 | > 20000 | 0.908 | > 2000 | 0.458 | 47.6 | 0.975 | > 10200 | 0.914 | > 20000
OVKATE (ovary, adherent) | 0.961 | > 16000 | 0.796 | 4500 | 0.977 | > 1020 |  |  | 0.978 | > 256 | 0.907 | > 20000 | 0.979 | > 2000 | 0.966 | > 1020 | 0.979 | > 10200 | 0.973 | > 20000
OVMIU (ovary, adherent) | 0.953 | > 16000 | 0.445 | 213 | 0.98 | > 1020 | 0.96 | > 10000 | 0.572 | 26.4 | 0.976 | > 20000 | 0.981 | > 2000 | 0.618 | 147 | 0.965 | > 10200 | 0.902 | > 20000
OVTOKO (ovary, adherent) | 0.864 | > 16000 | 0.493 | 298 | 0.98 | > 1020 | 0.949 | > 10000 | 0.5 | 16 | 0.966 | > 20000 | 0.933 | > 2000 | 0.178 | 4.96 | 0.974 | > 10200 | 0.955 | > 20000
P12-ICHIKAWA (T-cell lymphoblastic leukaemia, suspension) | 0.993 | > 16000 | 0.618 | 609 | 0.994 | > 1020 | 0.993 | > 10000 | 0.629 | 33.3 | 0.979 | > 20000 | 0.993 | > 2000 | 0.278 | 17.9 | 0.963 | > 10200 | 0.946 | > 20000
PA-1 (ovary, adherent) | 0.989 | > 16000 | 0.359 | 140 | 0.991 | > 1020 |  |  | 0.549 | 21.1 | 0.885 | 13800 | 0.993 | > 2000 | 0.143 | 7.32 | 0.93 | > 10200 | 0.973 | > 20000
PA-TU-8902 (pancreas, adherent) | 0.965 | > 16000 | 0.609 | 655 | 0.982 | > 1020 | 0.975 | > 10000 | 0.582 | 27.8 | 0.973 | > 20000 | 0.982 | > 2000 | 0.714 | 290 | 0.965 | > 10200 | 0.907 | > 20000
PANC-02-03 (pancreas, adherent) | 0.948 | > 16000 | 0.681 | 1110 | 0.98 | > 1020 | 0.98 | > 10000 | 0.687 | 59.9 | 0.983 | > 20000 | 0.974 | > 2000 | 0.746 |  | 0.953 | > 10200 | 0.949 | > 20000
PANC-03-27 (pancreas, adherent) | 0.97 | > 16000 | 0.519 | 351 | 0.986 | > 1020 | 0.976 | > 10000 | 0.471 | 13.4 | 0.985 | > 20000 | 0.98 | > 2000 | 0.164 | 6.61 | 0.989 | > 10200 | 0.917 | > 20000
PANC-04-03 (pancreas, adherent) | 0.972 | > 16000 | 0.654 | 1090 | 0.977 | > 1020 |  |  | 0.621 | 42.3 | 0.97 | > 20000 | 0.96 | > 2000 | 0.696 | 320 | 0.969 | > 10200 | 0.977 | > 20000
PANC-08-13 (pancreas, adherent) | 0.954 | > 16000 | 0.81 | 3580 | 0.983 | > 1020 | 0.957 | > 10000 | 0.722 | 82.7 | 0.983 | > 20000 | 0.979 | > 2000 | 0.792 | 612 | 0.971 | > 10200 | 0.957 | > 20000

Source: the supplement of paper PMC4967469
